# Inconclusive means that the source gave no clear call. Such entries were picked first, then a sample of the others. For some of these results: No potency is given beside an inconclusive call; the fits are too rough. Active and inactive are the calls of the source. Calls follow the shape of the dose curve; as a rule, active = well fitted curve in the direction sought with a large enough effect; inconclusive = small, poorly fitted or top-dose-only effect, or another doubt; inactive = no such curve, though single readings can be large; an effect the other way counts as inactive or inconclusive.
# What was measured:
# [1] = test system: Zika virus NS2B-NS3 protease (linked construct); experiment: Primary screen NINDS Rhodamine qHTS for Zika virus inhibitors (AID 1347160); conditions: activity change, negative = inhibition: at 57.1 µM (top of the series) unless noted; also: potency is read from the fitted curve at half-maximal effect; nearly all actives have a fitted effect of over 55% in size
# Procedure, shortened: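 Rhodamine110-peptide cleavage (1.5 µM substrate) by 25 nM linked NS2B-NS3 enzyme at pH 8.0 (Tris, Tween 20), after 15 min RT preincubation with compounds; 15-min fluorescence change normalized to controls and Hill-fitted.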
# [2] = Primary qHTS for inhibitors of nuclear receptor binding SET domain protein 2 (NSD2) in an isogenic RCH-ACV NSD2 p.E1099K mutant (9B) (AID 1645876); also: potency is read from the fitted curve at half-maximal effect; nearly all actives have a fitted effect of over 70% in size
# [3] = Primary qHTS for inhibitors of nuclear receptor binding SET domain protein 2 (NSD2) in an RCH-ACV wild type WT cells (2C) (AID 1645877); conditions: activity change, negative = cell killing: at 44.9 µM (top of the series) unless noted; also: nearly all actives have a fitted effect of over 70% in size; also: potency is read from the fitted curve at half-maximal effect; as to activity change, negative = cell killing: % is scaled to controls: 0 for no effect and ±100 for the full control effect
# [4] = target: Phospholipid hydroperoxide glutathione peroxidase GPX4 (Homo sapiens) (UniProt P36969); experiment: Primary qHTS Assay for Inhibitors of Recombinant Selenoprotein Glutathione Peroxidase 4 (GPX4) (AID 1845192); also: potency is read from the fitted curve at half-maximal effect; nearly all actives have a fitted effect of over 65% in size
# Procedure, shortened: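 qHTS, GR-coupled: GPX4 200 nM + cpd 30 min RT → GSH 1 mM, NADPH 0.5 mM, GR 100 nM → CHP 0.5 mM start; fluor 340/450 at t0 and t15 min; no-enzyme wells as control.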
# [5] = target: Luciferin 4-monooxygenase (Photinus pyralis) (UniProt P08659); experiment: Primary firefly luciferase (FLuc) qHTS assay for identification of artifact compounds. (AID 1845220); also: potency is read from the fitted curve at half-maximal effect; nearly all actives have a fitted effect of over 60% in size
# Procedure, shortened: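 qHTS, 15 min compound preincubation with substrate (10 uM luciferin, 10 uM ATP) at RT, then 10 nM FLuc; 5 min; luminescence; % inhibition vs no-enzyme/DMSO controls, 4-parameter Hill fit.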
# [6] = Primary fluorescence-based thiol-reactive (MSTI) qHTS assay for identification of artifact compounds. (AID 1845221);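 also: potency is read from the fitted curve at half-maximal effect; thiol-reactive compounds lower the probe fluorescence signal; nearly all actives have a fitted effect of over 65% in size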
# Procedure, shortened: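 In PBS pH 7.4 with 2% DMSO, each compound met 4 uM MSTI for one hour at ambient temperature, shielded from light, before fluorescence detection.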
# CRL-7250 = normal cell line; experiment: Cytotoxic Profiling of Annotated Libraries Using Quantitative High-Throughput Screening (AID 1296008); conditions: Five cell lines viability, CellTiter-Glo ATP luminescence, 48-72 h; max response: stronger effect = lower value; also: % is scaled to controls: 0 for no effect and ±100 for the full control effect; nearly all actives have a fitted effect of over 60% in size
# Procedure, shortened: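 Compounds were pin-transferred onto cells and incubated 48 or 72 hr at 37 degree Celsius, 95% humidity. CellTiter-Glo was added, plates sat 10 min at room temperature, then ATP-coupled luminescence was imaged as the viability read-out.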
# [7] = test system: Zika virus NS2B-NS3 protease (unlinked complex); experiment: Primary screen GU Rhodamine qHTS for Zika virus inhibitors: Unlinked NS2B-NS3 protease assay (AID 1347159); also: potency is read from the fitted curve at half-maximal effect; nearly all actives have a fitted effect of over 60% in size
# Procedure, shortened: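 Percent inhibition came from the 15-min rise in Rhodamine110 fluorescence (1.5 microM substrate, ~15% conversion), normalized to no-inhibitor and no-enzyme wells and Hill-fitted. Unlinked protease, 25 nM, pH 8.0 Tris buffer; compounds up to 114 microM, 15-min preincubation.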
# Tags tell the direction and shape of the fitted curve.
# UniProt P36969, sequence (P36969 whole entry, looked up): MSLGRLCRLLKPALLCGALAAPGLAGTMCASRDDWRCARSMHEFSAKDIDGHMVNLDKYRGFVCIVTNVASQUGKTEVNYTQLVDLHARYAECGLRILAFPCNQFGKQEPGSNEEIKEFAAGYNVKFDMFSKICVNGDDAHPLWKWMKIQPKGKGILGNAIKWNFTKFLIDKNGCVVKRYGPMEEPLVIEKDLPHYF
SMILES,Potency [1],Potency [2],Potency [3],Potency [4],Potency [5],Potency [6],max response (CRL-7250),Potency [7]
OC[C@H]1O[C@@H](Oc2cc(O)cc(-c3cc4ccc(O)cc4o3)c2)[C@H](O)[C@@H](O)[C@@H]1O,"inconclusive [inhibitor, single point]","inconclusive [inhibitor, single point]",inactive,active: 8.81 µM,"inconclusive [inhibitor, single point]",active: 5.19 µM,inactive: 0.0775%,
COc1c(C)c(OCC=C(C)C)cc2c1COC2=O,,,"inconclusive [inhibitor, single point]",,,,inactive: -4.58%,"inconclusive [inhibitor, full curve]"

# Reference: PubChem BioAssay (NCATS)
